Among the test systems are A101D; A2058; A375; 501Mel.
Common to all, as to test: cell count relative to DMSO control; melanoma cells; higher = more viable cells
Holding throughout (conditions): library dose: standard library concentration; 72 h

The other results are listed elsewhere or left out. Repeats are few or missing, and single values can be far off.

26 molecules from the supplement of paper PMC4604168 (melanoma cell lines) can be followed below.
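Note: cells treated in 1,536-well plates, then fixed and DAPI-stained, with nuclei counted from automated high-throughput microscope images.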

Regarding `O=C(/C=C/c1cccnc1)NCCCCC1CCN(C(=O)c2ccccc2)CC1` + Cc1nc(Nc2ncc(C(=O)Nc3c(C)cccc3Cl)s2)cc(N2CCN(CCO)CC2)n1 [dasatanib] (first compound 0.05 µM, partner dose 0.02 µM), the values for the cell count in the assay with A101D, in the assay on A2058 and in the assay on A375 were 86.3%, 75.4% and 70.6%, respectively.

For the molecule `Cc1ccc(Nc2nccc(N(C)c3ccc4c(C)n(C)nc4c3)n2)cc1S(N)(=O)=O` [Pazopanib] + COc1cc(N2CCC(N3CCN(C)CC3)CC2)ccc1Nc1ncc(Cl)c(Nc2ccccc2S(=O)(=O)C(C)C)n1 [NVP-TAE684] (first compound 2 µM, partner dose 0.4 µM), the cell count with 501Mel was 86.8%; in the assay with A101D, 82.3%; in the assay with A2058, 72.7%; with A375 it was 88%.

For the molecule `CC1(C)CCC(c2ccc(Cl)cc2)=C(CN2CCN(c3ccc(C(=O)NS(=O)(=O)c4ccc(N[C@H](CCN5CCOCC5)CSc5ccccc5)c(S(=O)(=O)C(F)(F)F)c4)cc3)CC2)C1` + CCCS(=O)(=O)Nc1ccc(F)c(C(=O)c2c[nH]c3ncc(Cl)cc23)c1F [PLX4720] (first compound 2 µM, partner dose 0.4 µM), the cell count in the assay with A101D amounted to 48.6%; in the assay on A2058, 87.3%; in the assay with A375, 63.6%.

Consider `CC1(C)CCC(c2ccc(Cl)cc2)=C(CN2CCN(c3ccc(C(=O)NS(=O)(=O)c4ccc(N[C@H](CCN5CCOCC5)CSc5ccccc5)c(S(=O)(=O)C(F)(F)F)c4)cc3)CC2)C1` + O=S(=O)(c1ccccc1)N(CC(F)(F)F)c1ccc(C(O)(C(F)(F)F)C(F)(F)F)cc1 [T0901317] (first compound 2 µM, partner dose 7 µM), for which the cell count in the assay on 501Mel was 52.3%; in the assay with A101D, 36.2%; in the assay with A2058 it was 90.3%; in the assay on A375, 50.1%.

`O=C(/C=C/c1cccnc1)NCCCCC1CCN(C(=O)c2ccccc2)CC1` + O=C(O)c1ccc2c(c1)nc(Nc1cccc(Cl)c1)c1ccncc12 [CX4945] (first compound 0.05 µM, partner dose 2 µM): the figures for the cell count with A101D, in the assay on A2058 and in the assay on A375 were 84.2%, 99.8% and 61.4%, respectively.

In the case of `Cc1ccc(Nc2nccc(N(C)c3ccc4c(C)n(C)nc4c3)n2)cc1S(N)(=O)=O` [Pazopanib] + CCc1ccc(CCOc2ccc(CC3SC(=O)NC3=O)cc2)nc1 [pioglitazone] (first compound 2 µM, partner dose 10 µM), the cell count in the assay on 501Mel was 69.6%; in the assay with A101D, 89.9%; in the assay with A2058 it was 103%; in the assay on A375, 104%.

Take `Cc1ccc(Nc2nccc(N(C)c3ccc4c(C)n(C)nc4c3)n2)cc1S(N)(=O)=O` [Pazopanib] + Nc1cccc2c1CN(C1CCC(=O)NC1=O)C2=O [lenalidomide] (first compound 2 µM, partner dose 5 µM): the cell count turned out to be 92.7% in the assay on A101D, 100% in the assay on A2058 and 110% in the assay with A375.

`Cc1ccc(Nc2nccc(N(C)c3ccc4c(C)n(C)nc4c3)n2)cc1S(N)(=O)=O` [Pazopanib] + COc1cc2ncnc(Nc3ccc(Oc4ccccc4)cc3)c2cc1OC [SrcI1] (first compound 2 µM, partner dose 10 µM): the cell count with 501Mel turned out to be 61.8%; in the assay with A101D, 50.6%; with A2058 it was 77.8%; with A375, 122%.

Regarding `O=C(/C=C/c1cccnc1)NCCCCC1CCN(C(=O)c2ccccc2)CC1` + COc1ccc2c(c1)CCC1C2CCC2(C)C(NCCCCCCN3C(=O)C=CC3=O)CCC12 [U73122] (first compound 0.05 µM, partner dose 2 µM), the cell count in the assay with 501Mel is 82.7%; with A101D, 64.6%; in the assay on A2058, 51.4%; in the assay on A375 it was 81.4%.

`O=C(/C=C/c1cccnc1)NCCCCC1CCN(C(=O)c2ccccc2)CC1` + O=C1NC(=O)/C(=C/c2ccc(-c3ccc(F)cc3O)o2)S1 [AS252424] (first compound 0.05 µM, partner dose 5 µM): the cell count in the assay on 501Mel worked out at 63.3%; with A101D, 109%; with A2058, 94.7%; in the assay on A375 it was 120%.

In the case of `CC1(C)CCC(c2ccc(Cl)cc2)=C(CN2CCN(c3ccc(C(=O)NS(=O)(=O)c4ccc(N[C@H](CCN5CCOCC5)CSc5ccccc5)c(S(=O)(=O)C(F)(F)F)c4)cc3)CC2)C1` + C[C@@H](Oc1cc(-c2cnn(C3CCNCC3)c2)cnc1N)c1c(Cl)ccc(F)c1Cl [Crizotinib] (first compound 2 µM, partner dose 1 µM), the cell count was 44% in the assay on A101D, 72.8% in the assay with A2058 and 57.6% in the assay with A375.

Consider `CC1(C)CCC(c2ccc(Cl)cc2)=C(CN2CCN(c3ccc(C(=O)NS(=O)(=O)c4ccc(N[C@H](CCN5CCOCC5)CSc5ccccc5)c(S(=O)(=O)C(F)(F)F)c4)cc3)CC2)C1` + O=C(CCCCCCC(=O)Nc1ccccc1)NO [vorinostat] (first compound 2 µM, partner dose 0.4 µM), for which the cell count in the assay on A101D was 46%; in the assay on A2058 it was 94.3%; in the assay with A375 it was 60.7%.

As for `Cc1ccc(Nc2nccc(N(C)c3ccc4c(C)n(C)nc4c3)n2)cc1S(N)(=O)=O` [Pazopanib] + CN(NC(=O)CC(=O)NN(C)C(=S)c1ccccc1)C(=S)c1ccccc1 [STA4783] (first compound 2 µM, partner dose 0.03 µM), the cell count in the assay on A101D was 65.3%; in the assay with A2058 it was 12%; in the assay with A375, 111%.

`CC1(C)CCC(c2ccc(Cl)cc2)=C(CN2CCN(c3ccc(C(=O)NS(=O)(=O)c4ccc(N[C@H](CCN5CCOCC5)CSc5ccccc5)c(S(=O)(=O)C(F)(F)F)c4)cc3)CC2)C1` + NC(=O)Nc1cc(-c2cccc(F)c2)sc1C(=O)N[C@H]1CCCNC1 [AZD7762] (first compound 2 µM, partner dose 0.1 µM): the results for the cell count in the assay with A101D, in the assay with A2058 and in the assay on A375 were 27.9%, 91.4% and 33.2%, respectively.

Regarding `CC1(C)CCC(c2ccc(Cl)cc2)=C(CN2CCN(c3ccc(C(=O)NS(=O)(=O)c4ccc(N[C@H](CCN5CCOCC5)CSc5ccccc5)c(S(=O)(=O)C(F)(F)F)c4)cc3)CC2)C1` + COc1ccc(COc2ccc(Cc3cnc(N)nc3N)cc2OC)cc1 [GW2580] (first compound 2 µM, partner dose 5 µM), the cell count in the assay on 501Mel is 74.6%; in the assay with A101D it was 58.4%; with A2058, 86.4%; in the assay on A375, 51.7%.

With `O=C(/C=C/c1cccnc1)NCCCCC1CCN(C(=O)c2ccccc2)CC1` + Cn1sc(=O)n(Cc2ccccc2)c1=O [TDZD-8] (first compound 0.05 µM, partner dose 2 µM), the cell count in the assay with A101D is 101%; with A2058, 90.6%; in the assay with A375 it was 97%.

For `O=C(/C=C/c1cccnc1)NCCCCC1CCN(C(=O)c2ccccc2)CC1` + C[C@]1(O)C[C@@H](c2nc(-c3ccc4ccc(-c5ccccc5)nc4c3)c3c(N)nccn32)C1 [OSI906] (first compound 0.05 µM, partner dose 2 µM), the cell count in the assay on A101D worked out at 115%; in the assay on A2058 it was 106%; in the assay with A375, 94.7%.

As to `CC1(C)CCC(c2ccc(Cl)cc2)=C(CN2CCN(c3ccc(C(=O)NS(=O)(=O)c4ccc(N[C@H](CCN5CCOCC5)CSc5ccccc5)c(S(=O)(=O)C(F)(F)F)c4)cc3)CC2)C1` + CC(C)CCN1c2nc(Nc3cc(F)c(O)c(F)c3)ncc2N(C)C(=O)C1C [BID1870] (first compound 2 µM, partner dose 1 µM), the cell count with 501Mel came to 54.1%; with A101D, 28.1%; with A2058, 89.1%; in the assay with A375, 192%.

Consider `O=C(/C=C/c1cccnc1)NCCCCC1CCN(C(=O)c2ccccc2)CC1` + C=CCn1c(=O)c2cnc(Nc3ccc(N4CCN(C)CC4)cc3)nc2n1-c1cccc(C(C)(C)O)n1 [MK1775] (first compound 0.05 µM, partner dose 0.1 µM), for which the cell count is 51.7% in the assay on A101D, 89.6% in the assay with A2058 and 63.5% in the assay with A375.

Take `Cc1ccc(Nc2nccc(N(C)c3ccc4c(C)n(C)nc4c3)n2)cc1S(N)(=O)=O` [Pazopanib] + C#Cc1cccc(Nc2ncnc3cc(OCCOC)c(OCCOC)cc23)c1 [erlotinib] (first compound 2 µM, partner dose 4 µM): the cell count in the assay on A101D came to 64.6%; with A2058, 66.9%; in the assay on A375, 79%.

With `CC1(C)CCC(c2ccc(Cl)cc2)=C(CN2CCN(c3ccc(C(=O)NS(=O)(=O)c4ccc(N[C@H](CCN5CCOCC5)CSc5ccccc5)c(S(=O)(=O)C(F)(F)F)c4)cc3)CC2)C1` + Clc1ccc(Nc2nnc(Cc3ccncc3)c3ccccc23)cc1 [vatalanib] (first compound 2 µM, partner dose 10 µM), the cell count with A101D amounted to 24.2%; in the assay with A2058, 67.3%; in the assay with A375 it was 30.9%.

Turning to `Cc1ccc(Nc2nccc(N(C)c3ccc4c(C)n(C)nc4c3)n2)cc1S(N)(=O)=O` [Pazopanib] + c1cc(-c2cnn3cc(-c4ccc(OCCN5CCCCC5)cc4)cnc23)ccn1 [Dorsomorphin] (first compound 2 µM, partner dose 2 µM), the cell count with 501Mel came out at 57.9%; in the assay on A101D it was 69.8%; in the assay on A2058 it was 99.1%; with A375, 75.3%.

As to `CC1(C)CCC(c2ccc(Cl)cc2)=C(CN2CCN(c3ccc(C(=O)NS(=O)(=O)c4ccc(N[C@H](CCN5CCOCC5)CSc5ccccc5)c(S(=O)(=O)C(F)(F)F)c4)cc3)CC2)C1` + COc1cc(Nc2ncc(F)c(Nc3ccc4c(n3)NC(=O)C(C)(C)O4)n2)cc(OC)c1OC [Tamatinib] (first compound 2 µM, partner dose 2 µM), the cell count came out at 23.6% in the assay on A101D, 71% in the assay on A2058 and 76.5% with A375.

For the molecule `Cc1ccc(Nc2nccc(N(C)c3ccc4c(C)n(C)nc4c3)n2)cc1S(N)(=O)=O` [Pazopanib] + Cn1cc(/C=C2\C(=O)Nc3cccnc32)c2ccccc21 [GW441756] (first compound 2 µM, partner dose 2 µM), the cell count in the assay with 501Mel was 68.2%; in the assay with A101D it was 81.7%; with A2058, 130%; in the assay on A375, 148%.

Turning to `CC1(C)CCC(c2ccc(Cl)cc2)=C(CN2CCN(c3ccc(C(=O)NS(=O)(=O)c4ccc(N[C@H](CCN5CCOCC5)CSc5ccccc5)c(S(=O)(=O)C(F)(F)F)c4)cc3)CC2)C1` + CCCCCCCCCCCC1=C(O)C(=O)C=C(O)C1=O [Embelin] (first compound 2 µM, partner dose 6 µM), the cell count with 501Mel was 75.2%; in the assay on A101D, 28.7%; in the assay on A2058, 114%; in the assay with A375, 61.2%.

`CC1(C)CCC(c2ccc(Cl)cc2)=C(CN2CCN(c3ccc(C(=O)NS(=O)(=O)c4ccc(N[C@H](CCN5CCOCC5)CSc5ccccc5)c(S(=O)(=O)C(F)(F)F)c4)cc3)CC2)C1` + O=c1cc(-c2cccc3c2Sc2ccccc2S3)oc(N2CCOCC2)c1 [KU55933] (first compound 2 µM, partner dose 5 µM): the cell count came out at 78.9% in the assay with 501Mel, 36.8% in the assay with A101D, 78.1% with A2058 and 81.5% in the assay with A375.
